# Test results from the supplement of paper PMC3334620.
# The full ranking holds about 33,000 sequences; the median of “E-score (-0.5 to 0.5)” is about -0.017, and the highest 2% start at about 0.3. The list shows a part of the results.
# Target: T1, Sut1 (UniProt P53032)
# T1 sequence: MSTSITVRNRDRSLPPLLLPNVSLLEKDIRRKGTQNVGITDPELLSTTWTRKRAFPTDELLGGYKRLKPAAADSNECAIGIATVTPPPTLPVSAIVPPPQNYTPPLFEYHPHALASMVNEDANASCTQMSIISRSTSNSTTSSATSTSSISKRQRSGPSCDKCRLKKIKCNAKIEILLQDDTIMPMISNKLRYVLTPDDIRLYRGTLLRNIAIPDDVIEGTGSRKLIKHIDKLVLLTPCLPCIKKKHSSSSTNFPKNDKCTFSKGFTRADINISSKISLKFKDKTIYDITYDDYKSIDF
# Assay: PBM E-score (8-mer binding enrichment) (E-score (-0.5 to 0.5)); higher = stronger / more preferred TF binding; most listed sequences are background and not binding sites
# Conditions: protein concentration: 200 nM; construct: GST-full length
# Outline: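 PURExpress in vitro transcription/translation supplied GST-tagged yeast transcription factors, either full-length or DNA-binding domain. Applied at about 100-200 nM to universal all-10-mer Agilent arrays double-stranded by primer extension, the bound protein was detected with fluorescent anti-GST. E-scores, modified Wilcoxon-Mann-Whitney statistics, were given by the Universal PBM Analysis Suite to ungapped eight-base words pooled with their reverse complements after masliner normalisation.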
row,Sequence,PBM E-score
1,CTAACATC,-0.0167
2,TACTCCGA,0.491
3,TACGTCGA,0.0132
4,CCACCGCG,0.159
5,CTGGGATC,-0.198
6,GCCCGGAA,0.244
7,CAGAATAG,-0.0939
8,ACGTCCTG,-0.351
9,AAACGGAC,0.147
10,GAGCCTGC,-0.113
11,CTTAAGAA,0.22
12,CCAGCCTC,-0.345
13,GCGTTGGA,-0.154
14,ATGAGCCC,-0.287
15,CTCATTCA,0.0887
16,CATTATAC,0.151
17,AAGGCGCC,-0.219
18,CCAAGTCC,0.276
19,TCATGTCA,-0.0459
20,TAAAGCCA,0.0423
21,GAGGCATC,-0.202
22,AGACAGGA,0.156
23,CCGGGGGA,0.0236
24,ATGCAATG,-0.0495
25,ATCGCTGC,-0.111

row,Sequence,PBM E-score
1,AGTTTCGG,0.249
2,GAAACGCC,0.0491
3,TGCAGCAA,-0.0544
4,AAGGGGCA,-0.185
5,ACCCTACT,-0.263
6,GGGGTTTA,0.102
7,CAGTTGCC,-0.0458
8,GCACAACC,-0.0984
9,CTGATCTC,0.082
10,CAAATCTC,0.124
11,AAATGGGT,0.219
12,ATTATGGA,0.214
13,CAAGCTGA,0.0467
14,GATGTTGA,0.0736
15,CCCTGTGC,-0.306
16,CTTCCTTA,0.0738
17,ACACTCCG,0.438
18,CAGAGTGA,-0.135
19,AGGATGGC,-0.132
20,CTCATTGA,-0.189
21,AAGACCAC,-0.181
22,AACTCGAT,0.192
23,ATAAGATA,0.24
24,CAGTGTGC,-0.217
25,AGCAGCTG,-0.0107

row,Sequence,PBM E-score
1,CGAGAGTA,0.0941
2,AGTATAAG,0.157
3,CGACAGTC,-0.209
4,GTAGGCGA,-0.0513
5,AAACCGTT,0.0182
6,GTAGCCAA,-0.0559
7,CGCTGGCC,-0.311
8,CCAGAGAG,-0.22
9,AATCACCG,-0.0218
10,TGCCGAAA,0.175
11,CCGCTATA,-0.0131
12,AATAGGAA,0.178
13,AGGCTATC,0.0163
14,GTACTCAA,0.0674
15,ACGTGGGA,-0.224
16,AATTCGAT,0.222
17,AGAGGTTA,-0.104
18,CCAGACGG,-0.108
19,ACAACTCA,0.13
20,CGATGCCC,-0.206
21,CGGTGCGA,-0.12
22,AATTGGAA,0.192
23,ATTGGAGA,0.0149
24,AACAGGGT,-0.146
25,CCCCTGCC,-0.305

row,Sequence,PBM E-score
1,AACTACTG,0.0566
2,CACGAGTA,0.009
3,GGGGACAA,-0.0934
4,TCACATGA,-0.156
5,GAATACGA,0.0862
6,AGTTGCGC,-0.0632
7,ATAGACAA,0.11
8,ATGGATAG,-0.118
9,GGGGGTAA,-0.343
10,GGGGGGGA,-0.466
11,AAGTAACG,0.218
12,ACAGGGTA,-0.158
13,AAGTTAGT,0.165
14,GATGAGGA,-0.0512
15,TATAGACA,0.136
16,GTATGAAA,0.221
17,ATTCGAGC,0.00401
18,AGGCGTTC,-0.248
19,GGATTGAA,0.257
20,CGCTGCCA,-0.0883
21,AGCAGACG,-0.185
22,ACGTTTAT,0.0924
23,CCACGATC,-0.00633
24,GTCTTTGA,-0.0789
25,CCTGCGGA,0.105

row,Sequence,PBM E-score
1,CAACATCA,0.0607
2,TAGGTACA,-0.0499
3,CTCAAGTA,0.0605
4,ACCCCCCC,-0.42
5,ACCCCGGC,0.183
6,CAGATACA,0.223
7,GATAACGC,0.105
8,AGGCCAGC,-0.255
9,CGATAACG,0.104
10,CATGCATC,0.154
11,ACCAAAAT,0.0417
12,CTCCTACC,0.111
13,TACCCGTA,-0.0387
14,ATATCGGA,0.331
15,CAGCCTGG,-0.158
16,GTACGGAA,0.22
17,AGACTGTG,-0.283
18,CTAATGTC,0.0036
19,CAAAAAGG,0.00739
20,AGTTGTTC,0.244
21,ATATCCGC,0.171
22,AGGCCATC,-0.149
23,ATCAGCCA,-0.138
24,TACGGGGA,-0.0333
25,CGTTATAA,0.135

row,Sequence,PBM E-score
1,TCAGGTAA,-0.0276
2,AGCAGTTC,0.0132
3,AAATGGAC,0.23
4,CGGTCAGA,-0.00289
5,ATTAAAGC,0.112
6,TCACTCCA,-0.00881
7,CAGCGCTC,-0.226
8,CGCGTAAC,-0.0649
9,CTTCGCGA,-0.141
10,TCTTATAA,0.2
11,TCGGATAA,0.318
12,AAAAGGGT,0.0354
13,AGTCCCCA,-0.109
14,ATCGCCGA,0.0653
15,CATTCGCC,-0.262
16,AAAGATTT,0.164
17,CTCGGATC,0.204
18,AACAGACC,0.103
19,CAACTCTG,-0.157
20,CGTTATCC,0.138
21,CCTGACCG,-0.157
22,GTTCAGTA,-0.0889
23,ACGCGGTA,-0.0143
24,GCATATAC,-0.121
25,CCGGTGCC,-0.0163

row,Sequence,PBM E-score
1,ATGCCATC,0.0993
2,AACCCGGA,0.333
3,AGGCTGTG,-0.0562
4,ACCTAGCC,-0.132
5,GGGCAAAA,0.0783
6,ACGGGCAT,-0.19
7,GAACGCTA,-0.0848
8,GCAGGGAC,-0.237
9,GCTAGAGC,-0.0744
10,TACACCTA,0.0806
11,CATAGGCG,-0.309
12,CCTTCCAA,0.0242
13,GTATAGCA,0.174
14,ATTGCTCC,0.0554
15,CAGTCCGG,0.353
16,CACAACAC,0.0343
17,AAATCATT,0.22
18,CTACGGTC,-0.0539
19,CACAGTAC,-0.0582
20,CTCCATTC,-0.0141
21,AGAATCCC,0.0785
22,CTCGGGGC,0.00548
